Structures are written as SMILES. Over roughly 110,000 compounds, “z-score” has its median near -0.1; the highest 2% begin near 2. The list shows a part of the results. Active and inactive are the calls of the source.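 Rule for the calls: active = z-score in the third read window above 3 or below -3; inactive = the rest.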

Z-score data for 73 compounds are collected here from PubChem BioAssay AID488969 (Vanderbilt High Throughput Screening Facility, 2010).

This assay concerns the target Metabotropic glutamate receptor 8 (Rattus norvegicus) (UniProt P70579). The assay is described as follows: mGluR8 Gi/Go-coupled signaling modulation – cell-based, rat, thallium flux, HTS, primary screen (AID 488969). The settings on record: HEK293 rat mGluR8, GIRK (G protein-gated inwardly rectifying potassium channel) thallium flux, FluoZin2; at 10 µM; stronger effect = higher value; submaximal glutamate (EC20) added with thallium.
UniProt P70579, sequence (P70579 whole entry, looked up): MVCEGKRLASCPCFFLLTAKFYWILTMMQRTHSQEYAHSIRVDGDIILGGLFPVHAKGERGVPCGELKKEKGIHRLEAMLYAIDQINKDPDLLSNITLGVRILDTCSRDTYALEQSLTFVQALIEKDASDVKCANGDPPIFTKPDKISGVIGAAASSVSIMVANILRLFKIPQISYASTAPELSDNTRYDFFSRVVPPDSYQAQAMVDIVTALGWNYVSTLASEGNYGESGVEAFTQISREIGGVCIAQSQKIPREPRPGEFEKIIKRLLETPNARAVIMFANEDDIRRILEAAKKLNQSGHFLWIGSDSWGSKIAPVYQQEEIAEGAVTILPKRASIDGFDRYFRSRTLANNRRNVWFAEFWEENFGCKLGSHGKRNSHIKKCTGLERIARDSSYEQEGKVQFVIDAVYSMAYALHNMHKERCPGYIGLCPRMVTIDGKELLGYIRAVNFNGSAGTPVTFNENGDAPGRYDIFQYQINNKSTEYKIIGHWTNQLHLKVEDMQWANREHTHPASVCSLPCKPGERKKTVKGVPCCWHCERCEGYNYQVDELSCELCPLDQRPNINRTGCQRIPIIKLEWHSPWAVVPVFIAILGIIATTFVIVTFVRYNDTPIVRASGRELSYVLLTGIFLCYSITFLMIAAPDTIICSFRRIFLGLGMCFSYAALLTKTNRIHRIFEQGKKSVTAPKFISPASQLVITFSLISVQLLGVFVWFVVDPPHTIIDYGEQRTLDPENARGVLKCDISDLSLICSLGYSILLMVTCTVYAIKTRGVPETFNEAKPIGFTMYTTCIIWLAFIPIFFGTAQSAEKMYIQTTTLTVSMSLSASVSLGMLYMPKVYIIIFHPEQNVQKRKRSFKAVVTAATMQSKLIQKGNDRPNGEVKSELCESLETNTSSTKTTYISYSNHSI
In the case of `Cc1ccc(C(=O)O/N=C2\CCS(=O)(=O)c3sccc32)cc1`, the z-score is -0.129.

Consider `COc1ccc2c(c1)C(C)=CC(C)(C)N2C(=O)CNCc1ccc2c(c1)OCO2`, for which the z-score was -0.359.

Turning to `Cn1cc(Br)c(C(=O)N2CCc3ccccc32)n1`, the z-score is -0.257. Regarding `CC(c1ccccc1)N1C(=O)NC(NC(=O)c2cccnc2)(C(F)(F)F)C1=O` (stereo not drawn), the z-score was 0.102. Compound `COc1ccc(S(=O)(=O)N2c3ccccc3OCC2c2ccccc2)cc1` (stereo not drawn) had a z-score of -0.22. `Cc1ccccc1N1CCN(C(=S)c2ccc([N+](=O)[O-])cc2)CC1` showed a z-score of -0.296. For `CCOc1c2ccc(C(=O)NCc3ccc(OC)cc3)cc2nn1CCOC`, the z-score is -0.0472. To `CCOC(=O)c1cnn(-c2ncnc3sc(C)c(C)c23)c1N` belongs 0.0294. `O=P1(Nn2cnnc2)C=C(c2ccccc2)OC(c2ccccc2)=C1`: the z-score was found to be 0.0913. Under `Cc1cc(OCC(=O)NC(C)(C)C)ccc1Cl` stands -0.188; under `CCCn1c(=S)[nH]c2cc(OC)c(OC)cc2c1=O`, 0.397. With `COc1ccc2nc(Nc3sc4c(c3C(N)=O)CCCC4)sc2c1`, the z-score amounted to 1.32. To `Cc1cc(=O)[nH]c(N/N=C/c2cccs2)n1` belongs -0.0197. Compound `O=C(O)CCCC(=O)NCCc1cccc(Cl)c1` gave a z-score of -0.179. In turn, `Cc1ccc(NC(=S)N/N=C/c2c(C)nn(-c3ccccc3)c2N2CCCC2)cc1` gave a z-score of 0.376. With `Cc1cccc(NC(=S)NC(NC(=O)c2ccco2)C(Cl)(Cl)Cl)c1` (stereo not drawn), the z-score turned out to be 0.384. `COc1cccc(-n2ccnc2SCC(=O)N2CCCc3ccccc32)c1` came in with a z-score of 0.0268. `Cc1ccc(OCCn2cc(/C=N/NC(=O)c3ccncc3)c3ccccc32)cc1`: the z-score was -0.0479. `CC12C(=O)N(c3nccs3)C(=O)C1C1C=CC2C1` (stereo not drawn) displayed a z-score of 0.111. Under `Cc1ccc(NC(=S)NC(NC(=O)C(C)(C)C)C(Cl)(Cl)Cl)c(C)c1` (stereo not drawn) stands -0.0869; under `COc1cccc(C(=O)NNC(=O)C2CC(C)=C(C)CC2C(=O)O)c1` (stereo not drawn), 0.0271; under `O=Cc1cc2ccccc2nc1SCc1ccc(Cl)c(Cl)c1`, -0.422. The compound `COc1cc2c(cc1NC(=O)COC(=O)[C@@H](NC(=O)c1ccccc1)C(C)C)oc1ccccc12` returned a z-score of -0.115. With `Nc1cc(C2CCCC2)nn1-c1ccccc1`, the z-score came to 0.933. With `O=C(CSc1nc2ncccc2[nH]1)c1ccc(F)cc1`, the z-score is 0.0639. For `Cc1ccc(Nc2cc(C)nn2-c2nc(C)cc(=O)[nH]2)cc1`, the z-score was active: 16.4.

Regarding `COc1ccc(-n2cnnc2SCC(=O)Nc2ccc(N3CCOCC3)cc2)cc1`, the z-score is -0.339. To `O=C(Nc1ccccc1)C1CCN(C(=O)c2ccccc2)CC1` belongs -0.154.

`Cc1ccc(C(=O)Nc2cccc(-c3cnc4ccccc4n3)c2)cc1`: the z-score is -0.11.

In the case of `Cc1ccc2nc(-c3ccc(NC(=O)CCS(=O)(=O)c4ccccc4)cc3)sc2c1`, the z-score turned out to be 0.109. Compound `CC(C)NC(=S)N1CCN(C(c2ccccc2)c2ccccc2)CC1` came in with a z-score of -0.495. As for `CC1Nc2nc(NC(=O)C(C)(C)C)[nH]c(=O)c2N(C)C1C` (stereo not drawn), the z-score amounted to 0.0939. Under `CCSc1nnc(NC(=O)C2Cc3ccccc3CN2S(=O)(=O)CC)s1` (stereo not drawn) stands 0.295; under `Cc1cc(N2CCOCC2)nc2ccc(NC(=O)CCC(=O)N3CCC(C)CC3)cc12`, 0.27.

For the compound `COc1cc2c(cc1OC)CN(c1nc(CN3CCOCC3)nc3sc4c(c13)CCCC4)CC2`, the z-score worked out at 0.0367. For `CC(C)C(=O)Nc1ccc(Sc2ccc(F)cc2)cc1`, the z-score is -0.0187. For `Clc1ccc(Oc2cnc3ccccc3n2)cc1`, the z-score is -0.22. `COc1ccc2nc(SCC(=O)c3ccco3)[nH]c2c1`: the z-score is 0.746.

`Cc1nnc(NC(=O)Nc2cccc(Cl)c2)s1` showed a z-score of -0.208. Under `CC/C(=N\NC(=S)Nc1cc(C)ccc1C)c1ccc(OC(F)F)cc1` stands active: 3.47; under `O=C(NC(=S)Nc1c(Cl)ccc2nsnc12)c1ccco1`, -0.429. Consider `CC(C)OCCCNC(=O)CN1CCN(Cc2ccccc2Cl)C1=O`, for which the z-score was 0.117. In turn, `CC(=O)c1ccc(-n2nnnc2SCC(=O)N2CCc3ccccc3C2)cc1` returned a z-score of 0.3. In the case of `COc1cccc(N(CC(=O)N2CCN(C)CC2)S(=O)(=O)c2ccc(C)cc2)c1`, the z-score worked out at 0.199. Take `O=C(CCCn1c(=O)c2sccc2n(CC(=O)NCc2ccco2)c1=O)NCc1ccco1`: the z-score is -0.412.

`CCC(=O)Nc1cccc(NC(C)=O)c1` returned a z-score of -0.221. In turn, `COC(=O)C1=C(Nc2ccc(C)cc2)C=C(C)C(C(=O)OC)C1c1cccc(OC)c1` (stereo not drawn) came in with a z-score of -0.00294. For the compound `Cc1ccc(-c2csc(C(C#N)=C3CCCC3)n2)cc1`, the z-score was -0.0695. In turn, `Clc1cccc(OCCN2CCOCC2)c1` yielded a z-score of 0.259. In turn, `COc1cccc(C(=O)CN2C3=NCCCN3c3ccccc32)c1` returned a z-score of 0.00518.

With `CCc1ccc(C(=O)N/N=C/c2cccc3ccccc23)nc1`, the z-score is -0.0993. Compound `CCOC(=O)C1CCN(C(=S)Nc2cccc(C)c2)CC1` returned a z-score of -0.145. In turn, `O=c1cc(CN2CCN(Cc3ccccc3)CC2)c2cc(Cl)ccc2o1` returned a z-score of 0.272. Under `COc1ccc(CNc2nc(NCc3ccc(OC)cc3)n(S(C)(=O)=O)n2)cc1` stands 0.236; under `O=C1NCCCC1C(=O)Nc1cccc(C(F)(F)F)c1` (stereo not drawn), -0.957; under `Brc1ccc(-c2nc(-c3ccncc3)no2)o1`, 0.0242. For the compound `COc1ccc(CCNC(=O)CCS(=O)(=O)c2ccc(C)cc2)cc1OC`, the z-score was -0.0808. As for `O=C(Cc1n[nH]c(=O)c2ccccc12)NCc1ccccn1`, the z-score was determined as 0.00671.

Compound `O=S(=O)(Cc1cc(Cl)nc(-c2ccccc2)n1)c1ccccc1` displayed a z-score of -0.303. As to `CCN1CCN(S(=O)(=O)c2cc(OC)ccc2OC)CC1`, the z-score is -0.242. Turning to `CC(=O)NC(CCS(C)(=O)=O)C(=O)Nc1ccc(F)cc1Cl` (stereo not drawn), the z-score is -0.275. For `CC(=O)Oc1ccc(C(=O)Cc2ccccn2)c(O)c1`, the z-score was -0.271.

`CCCN1CC23C=CC(O2)C(C(=O)O)C3C1=O` (stereo not drawn) registered a z-score of 0.384. `CCOCCCn1c(C)nc2c(c1=O)c1nc3ccccc3nc1n2-c1ccc(C)cc1` came in with a z-score of -0.519. With `CCOc1ccccc1NC(=S)N(CCCN1CCOCC1)Cc1cn(C)c2ccccc12`, the z-score was -0.615. To `O=[N+]([O-])CC(=Nc1ccc(Cl)cc1)N/N=C\c1oc(O)c2ccccc12` belongs -0.358; to `CCOC(=O)NC(NC(=O)OCC)C(=O)c1ccccc1`, -0.227. On to `O=C(NCCCN1CCCC1=O)C1CCN(S(=O)(=O)N2CCOCC2)CC1`, for which the z-score stood at 0.414. For `COc1ccccc1/C=C(/CC(=O)NCc1ccc2c(c1)OCO2)c1nc2ccccc2s1`, the z-score is -0.251. For `c1cc2c3c(cccc3c1)C(N1CCCCC1)=N2`, the z-score came to 0.73.

`CC(C)SCc1nc2ccccc2[nH]1` came in with a z-score of -0.265. Regarding `O=C(COn1nnc2ccccc21)NCC1CCCCC1`, the z-score is 0.789. With `COc1ccc2c(Cl)c(-c3nnc(SCC(N)=O)n3C)sc2c1`, the z-score was -1.51.
